{"source": "PubChem BioAssay AID1476", "about": "(National Center for Advancing Translational Sciences (NCATS), 2009)", "note": "Out of some 200,000 compounds screened, about 4,500 (2.2%) were called active. This list was built around the results that the source calls inconclusive (neither active nor inactive); the mix of calls is not that of the screen. Calls come from the whole dose curve; as a rule, active = well fitted inhibition curve with a large enough effect; inconclusive = small, poorly fitted or top-dose-only effect, or effect the other way; inactive = flat fitted curve, though single readings scatter. Potencies beside an inconclusive call are fits to weak or partial responses and may not hold up. Potency is the fitted concentration of half-maximal effect; tags give direction and shape of the fitted curve."}
{"molecular_target": "Cruzipain (Trypanosoma cruzi) (UniProt P25779)", "sequence (P25779 whole entry, looked up)": "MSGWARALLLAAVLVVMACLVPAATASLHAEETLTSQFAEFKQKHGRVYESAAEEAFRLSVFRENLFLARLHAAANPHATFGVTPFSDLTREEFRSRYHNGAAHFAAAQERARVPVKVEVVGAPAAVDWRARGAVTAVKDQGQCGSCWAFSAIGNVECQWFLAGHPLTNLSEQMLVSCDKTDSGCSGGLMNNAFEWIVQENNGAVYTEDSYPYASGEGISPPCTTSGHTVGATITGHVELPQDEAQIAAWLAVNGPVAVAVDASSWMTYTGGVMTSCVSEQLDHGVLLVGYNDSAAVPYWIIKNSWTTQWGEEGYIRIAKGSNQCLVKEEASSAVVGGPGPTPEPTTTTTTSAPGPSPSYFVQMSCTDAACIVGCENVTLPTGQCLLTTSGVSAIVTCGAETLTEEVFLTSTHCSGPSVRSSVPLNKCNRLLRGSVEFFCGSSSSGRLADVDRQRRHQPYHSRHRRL", "experiment": "qHTS Assay for Promiscuous and Specific Inhibitors of Cruzain (without detergent); note: nearly all actives have a fitted effect of over 40% in size;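 for max response, negative = inhibition: plate controls were enzyme without inhibitor for no effect and buffer without enzyme for full effect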", "details": "purified cruzain, Z-FR-AMC fluorescence, no detergent", "method_in_brief": "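Purified cruzain at 1.5 nM, pre-incubated 15 min with compound at room temperature in 100 mM sodium acetate pH 5.5, 5 mM DTT, 0.00005% Triton X-100. Reaction started with 2 uM Z-FR-AMC; AMC fluorescence increase over 60 s gives rate.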"}
{"smiles": "COC(=O)c1cc(Br)c(=O)n(-c2ccc(OC)cc2)c1", "Potency": "inconclusive: 31.6 µM [activator, single point]"}
{"smiles": "N#Cc1c(-c2cccs2)cc(C2CC2)nc1SCC(N)=O", "Potency": "inconclusive: 39.8 µM [inhibitor, single point]"}
{"smiles": "O=C(Oc1ccc(C(=S)N2CCOCC2)cc1Br)c1ccccc1F", "max response, negative = inhibition": "inactive: -13.7%"}
{"smiles": "COc1ccccc1NC(=O)c1sc2ncn(Cc3cccc(C)c3)c(=O)c2c1C", "Potency": "inconclusive: 7.94 µM [activator, single point]"}
{"smiles": "COc1ccc(/C=N/NC(=O)C2c3ccccc3Oc3ccccc32)c(OC)c1", "Potency": "inconclusive: 39.8 µM [inhibitor, single point]"}
{"smiles": "CN(C(=O)CN1C(=O)CCSc2ccc(S(=O)(=O)N3CCCC3)cc21)c1ccccc1", "Potency": "inconclusive: 31.6 µM [activator, single point]"}
{"smiles": "Cc1cccc(C)c1OCc1nnc(NC(=O)CSc2ccc(Cl)cc2)s1", "Potency": "active: 25.1 µM"}
{"smiles": "Cc1ccc(S(=O)(=O)N/N=C\\c2cn(-c3ccccc3)nc2-c2ccccc2)cc1", "Potency": "inconclusive: 39.8 µM [inhibitor, single point]"}
{"smiles": "CCSc1nc2c([nH]c3ccccc32)c(=O)n1C", "Potency": "active: 12.6 µM"}
{"smiles": "CC(Oc1ccc(Cl)cc1Cl)c1nc(-c2ccc(NC(=O)c3cccnc3)cc2)no1", "note": "(centres undefined)", "Potency": "inconclusive: 39.8 µM [activator, single point]"}
{"smiles": "COc1cccc(CN2CC(O)=C(c3nc(-c4ccc(Cl)cc4)cs3)C2=N)c1", "Potency": "active: 12.6 µM"}
{"smiles": "Cc1cccc(NC(=O)c2cc3n(n2)C(C(F)(F)F)CC(C2CC2)N3)c1C", "note": "(centres undefined)", "Potency": "inconclusive: 31.6 µM [inhibitor, single point]"}
{"smiles": "COc1ccccc1-n1c(/C=C/c2c(C)n(C)c3ccccc23)nc2ccccc2c1=O", "Potency": "inconclusive: 25.1 µM [inhibitor, single point]"}
{"smiles": "Cc1ccc(-n2[nH]c(C)c(/C=N/NC(=O)c3cccc([N+](=O)[O-])c3)c2=O)cc1C", "Potency": "inconclusive: 25.1 µM [activator, partial curve]"}
{"smiles": "FC(F)(F)c1ccc2c(c1)nnn2C1CCN(Cc2nnnn2Cc2ccccc2)CC1", "Potency": "inconclusive: 25.1 µM [activator, single point]"}
{"smiles": "Cc1noc(C)c1S(=O)(=O)N1CCC(C(=O)N2CCN(c3ccc(Cl)cc3)CC2)CC1", "Potency": "inconclusive: 31.6 µM [activator, single point]"}
{"smiles": "Cc1ccc(N(CC(=O)Nc2ccc(C)c(F)c2)S(=O)(=O)c2c(C)n[nH]c2C)cc1", "Potency": "inconclusive: 39.8 µM [activator, single point]"}
{"smiles": "CCOc1cc(C(=O)N2CCc3c([nH]c4ccccc34)C2c2ccccc2)cc(OCC)c1OCC", "note": "(centres undefined)", "Potency": "inconclusive: 31.6 µM [inhibitor, single point]"}
{"smiles": "COc1ccc(-c2noc(-c3cccc(OC)c3OC)n2)cc1OC", "Potency": "inconclusive: 39.8 µM [activator, single point]"}
{"smiles": "CC(C)c1ccc(NC(=O)c2cc(S(=O)(=O)NCc3ccccc3Cl)ccc2F)cc1", "max response, negative = inhibition": "inactive: -0.248%"}
{"smiles": "O=C(/C=C/c1ccccc1Cl)NC(=S)Nc1ccccc1C(=O)NC1CCCCC1", "Potency": "active: 3.98 µM"}
{"smiles": "COc1ccccc1CNc1ccc(-c2nc(-c3ccncc3)no2)cc1[N+](=O)[O-]", "max response, negative = inhibition": "inactive: -8.12%"}
{"smiles": "CCN(CC)c1ccc(/C=C2\\NC(=O)NC2=O)cc1", "max response, negative = inhibition": "inactive: -8.72%"}
{"smiles": "COC(=O)c1c(NC(=O)CSc2nnnn2-c2ccccc2)sc2c1CCC(C)C2", "note": "(centres undefined)", "Potency": "active: 20 µM"}
{"smiles": "Clc1ccc2nc(SCc3nnc(-c4ccccc4)o3)[nH]c2c1", "Potency": "inconclusive: 31.6 µM [inhibitor, single point]"}
{"smiles": "Cc1cc(/C=C(\\C#N)C(=O)NCc2cccs2)c(C)n1-c1ccc([N+](=O)[O-])cc1", "Potency": "inconclusive: 39.8 µM [inhibitor, single point]"}
{"smiles": "CCOCCCNC(=O)C(c1ccc(C)cc1)N(Cc1cccs1)C(=O)CNC(C)=O", "note": "(centres undefined)", "Potency": "inconclusive: 39.8 µM [activator, single point]"}
{"smiles": "CCOC(=O)c1c(C)[nH]c(C)c1S(=O)(=O)N1CCCC(C(=O)Nc2ccc(F)cc2F)C1", "note": "(centres undefined)", "max response, negative = inhibition": "inactive: 6.31%"}
{"smiles": "O=C(NC1CCCCCC1)c1ccc2c(c1)sc1nc(-c3ccccc3)cn12", "max response, negative = inhibition": "inactive: 6.58%"}
{"smiles": "CCOC(=O)c1c(NC(=S)NC(=O)c2ccc(Cn3cc(Cl)cn3)o2)sc2c1CCCCC2", "Potency": "inconclusive: 6.31 µM [inhibitor, single point]"}
{"smiles": "CSc1cccc(NC(=O)N2CCN(c3cc(-c4noc(C)n4)ccc3C)CC2)c1", "max response, negative = inhibition": "inactive: -5.63%"}
{"smiles": "COc1ccc(-c2n[nH]c3c2C(c2ccc(O)cc2)N(c2ccc(Br)cc2)C3=O)cc1", "note": "(centres undefined)", "Potency": "inconclusive: 25.1 µM [inhibitor, single point]"}
{"smiles": "N#CC1=C(N)NC(SCC(=O)c2ccc(Cl)cc2)=C(C#N)C12CCCC2", "Potency": "inconclusive: 39.8 µM [inhibitor, single point]"}
{"smiles": "CCOC(=O)C1CCN(C(=S)Nc2ccc(S(N)(=O)=O)cc2)CC1", "Potency": "inconclusive: 15.8 µM [activator, partial curve, poor fit]"}
{"smiles": "Cc1cc(C(=O)CSc2nc(N)cc(=O)[nH]2)c(C)n1CCc1ccc(F)cc1", "Potency": "active: 25.1 µM"}
{"smiles": "COc1ccc(C(=O)Nc2ccc(-c3cc4ccccc4oc3=O)c(C)c2)cc1OC", "Potency": "inconclusive: 39.8 µM [activator, single point]"}
{"smiles": "COC(=O)c1ccc(NC(=O)c2sc3nc(-c4ccccc4)cn3c2C)cc1", "Potency": "inconclusive: 20 µM [activator, partial curve]"}
{"smiles": "Cn1nnc(NCc2cc(Br)ccc2OCc2cccs2)n1", "Potency": "active: 31.6 µM"}
{"smiles": "CCOC(=O)c1sc(N/N=C/c2ccccc2)nc1C", "Potency": "inconclusive: 39.8 µM [activator, single point]"}
{"smiles": "CCn1c(COc2cc(C)cc(C)c2)nnc1SCC(=O)N1CCN(c2ccccc2)CC1", "Potency": "inconclusive: 31.6 µM [activator, single point]"}
{"smiles": "COc1cc(C=C(c2nc3ccccc3s2)c2nc3ccccc3s2)ccc1O", "Potency": "inconclusive: 31.6 µM [inhibitor, single point]"}
{"smiles": "Cn1nc(-c2ccccc2)c(C(=O)Nc2ccc(C(F)(F)F)cc2)c1Cl", "Potency": "inconclusive: 7.94 µM [inhibitor, full curve, poor fit]"}
{"smiles": "O=C1c2cccc3cccc(c23)C(=O)N1CCN1CCN(C(=S)Nc2ccc(F)cc2)CC1", "Potency": "inconclusive: 39.8 µM [inhibitor, single point]"}
{"smiles": "O=c1cc(O)c2sc(Nc3cccc(C(F)(F)F)c3)nc2[nH]1", "Potency": "inconclusive: 31.6 µM [inhibitor, single point]"}
{"smiles": "O=C(Cn1c(=O)oc2cc(S(=O)(=O)N3CCCC3)ccc21)NC1CCCc2ccccc21", "note": "(centres undefined)", "Potency": "active: 25.1 µM"}
{"smiles": "O=C(Nc1cc(Sc2nc3ccccc3s2)cc([N+](=O)[O-])c1)c1ccccc1F", "Potency": "inconclusive: 39.8 µM [inhibitor, single point]"}
{"smiles": "O=C(CSc1nnnn1-c1ccccc1)Nc1ncc(Cc2cc(Cl)ccc2Cl)s1", "Potency": "inconclusive: 39.8 µM [inhibitor, single point]"}
{"smiles": "CCCC(=O)Nc1ccc(-c2nc3cc(C)c(C)cc3o2)c(O)c1", "Potency": "inconclusive: 5.01 µM [inhibitor, full curve, poor fit]"}
{"smiles": "CN(C)c1ncc2nc(-c3cccs3)c(=O)n(CCc3ccccc3)c2n1", "max response, negative = inhibition": "inactive: 2.85%"}
{"smiles": "Cc1cccc(-n2ncc(C(=O)NCc3ccccn3)c2C2CCN(C(=O)OC(C)(C)C)CC2)c1", "Potency": "inconclusive: 39.8 µM [activator, single point]"}
{"smiles": "CC(=Nc1ccc(C)c(C)c1)C1=C(O)CSC1=O", "max response, negative = inhibition": "inactive: -6.77%"}
{"smiles": "Cc1cc(NC(=O)Cn2nc(C)n3cccc3c2=O)ccc1Br", "Potency": "inconclusive: 31.6 µM [inhibitor, single point]"}
{"smiles": "CC12CCC(C(=O)N(CSC(=S)N/N=C\\c3ccccc3Cl)C1=O)C2(C)C", "note": "(centres undefined)", "Potency": "active: 15.8 µM"}
{"smiles": "CCOP(=O)(OCC)c1nc(-c2ccc(C)cc2)oc1NCc1ccccc1", "Potency": "inconclusive: 31.6 µM [activator, single point]"}
{"smiles": "Cc1ccc(C)c(NC(=O)C(=O)NCCc2csc3nc(-c4ccccc4C)nn23)c1", "max response, negative = inhibition": "inactive: -12.2%"}
{"smiles": "Cc1ccc(OCC(=O)Nc2ccc3c4c(cccc24)CC3)c(C)c1", "Potency": "inconclusive: 31.6 µM [inhibitor, single point]"}
{"smiles": "COc1ccc(CNC(=O)c2cc3c(s2)-c2c(C)cccc2OC3)cc1", "Potency": "inconclusive: 39.8 µM [inhibitor, single point]"}
{"smiles": "N#C/C(=C\\c1cc2ccccc2nc1N1CCOCC1)C(=O)Nc1ccc(N2CCOCC2)cc1", "Potency": "inconclusive: 39.8 µM [activator, single point]"}
{"smiles": "Cc1cccc(C2=NN(c3ccccc3)[C@@H](C(=O)N3CCOC3=O)[C@@H]2c2ccccc2)c1", "Potency": "inconclusive: 35.5 µM [inhibitor, single point]"}
{"smiles": "Cc1ccc2[nH]c(=O)c(CN(CC3CCCO3)S(=O)(=O)c3c(C)ccc4nsnc34)cc2c1", "note": "(centres undefined)", "Potency": "inconclusive: 25.1 µM [activator, single point]"}
{"smiles": "O=C(CCC1N=C2c3ccccc3N=C(SCc3ccc(Cl)cc3)N2C1=O)NCc1ccco1", "note": "(centres undefined)", "Potency": "inconclusive: 39.8 µM [activator, single point]"}
{"smiles": "COCCN(CCOC)Cc1c(O)ccc2c3c(c(=O)oc12)CCC3", "Potency": "inconclusive: 39.8 µM [inhibitor, single point]"}
{"smiles": "O=C(COC(=O)/C=C/c1ccc(Cl)cc1Cl)Nc1cc(C(F)(F)F)ccc1N1CCOCC1", "Potency": "active: 12.6 µM"}
{"smiles": "O=C(CN(c1ccc(F)cc1)S(=O)(=O)c1ccc2c(c1)OCCO2)Nc1ccc2c(c1)OCO2", "Potency": "inconclusive: 39.8 µM [inhibitor, single point]"}
